# Experimental data reported in PubChem BioAssay AID485294 (National Center for Advancing Translational Sciences (NCATS), 2010).
# Hit rate of the full screen: of about 370,000 compounds, about 150 (0.041%) were called active. Inconclusive means that the source gave no clear call. Such entries were picked first, then a sample of the others. The call rests on the fitted dose curve; in most records, active means well fitted inhibition curve with a large enough effect; inconclusive means small, poorly fitted or top-dose-only effect; inactive means flat fitted curve, though single readings scatter. No potency is given beside an inconclusive call; the fits are too rough.
# Target: Beta-lactamase (Escherichia coli (strain K12)) (UniProt P00811)
# Chain of UniProt P00811 (P00811 whole entry, looked up): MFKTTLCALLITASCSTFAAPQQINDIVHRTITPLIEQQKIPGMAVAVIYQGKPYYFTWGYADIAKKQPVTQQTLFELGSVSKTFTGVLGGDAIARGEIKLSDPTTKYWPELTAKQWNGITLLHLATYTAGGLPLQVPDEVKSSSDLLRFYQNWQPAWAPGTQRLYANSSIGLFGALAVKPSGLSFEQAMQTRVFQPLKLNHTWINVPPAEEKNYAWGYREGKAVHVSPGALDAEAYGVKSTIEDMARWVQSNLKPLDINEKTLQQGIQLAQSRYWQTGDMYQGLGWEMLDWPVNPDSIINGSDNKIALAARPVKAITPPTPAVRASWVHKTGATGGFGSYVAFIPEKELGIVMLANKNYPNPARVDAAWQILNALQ
# Assay: qHTS Inhibitors of AmpC Beta-Lactamase (assay with detergent); further: nearly all actives have a fitted effect of over 25% in size
# Conditions: AmpC hydrolysis of nitrocefin, absorbance 480 nm, 0.01% Triton; series mostly up to 114 µM
# How it was run: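 AmpC (5.3 nM in the dispensed reagent) in 20 mM phosphate pH 7.0 with 0.01% (detergent screen) or 0.0001% Triton X-100 was preincubated with compounds for 15 min at room temperature. Nitrocefin was then added from an 800 uM solution, and hydrolysis was followed at 480 nm.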
# Potency means the concentration at half of the fitted maximal effect; tags describe the fitted curve by direction and shape.
row,SMILES,Potency
1,COC/C=C/C1=CC2=CC(=O)C(C)(OC(=O)c3cnc4ccccc4n3)C(=O)C2=CN1c1ccc(CO)cc1 (centres undefined),"inconclusive [inhibitor, partial curve]"
2,O=C(N/N=C/c1cc([N+](=O)[O-])ccc1O)c1c[nH]c2ccccc12,inactive
3,COc1cc2nc(CN3CCN(S(=O)(=O)c4ccc(Cl)cc4)CC3)[nH]c(=O)c2cc1OC,"inconclusive [inhibitor, full curve, poor fit]"
4,CCOC(=O)N1CCN(CC(O)COc2ccc(-c3ccccc3)cc2)CC1 (centres undefined),"inconclusive [inhibitor, partial curve, poor fit]"
5,Cc1nn(-c2ccccc2)c(Cl)c1/C=N/Nc1ccc(Cl)c(C(=O)O)c1,"inconclusive [inhibitor, partial curve]"
6,COc1ccc(OC)c(CNS(=O)(=O)c2ccc(-c3coc(C)n3)cc2)c1,inactive
7,Cc1ccc(S(=O)(=O)N2CCC(C(=O)OC(C)C(=O)NCc3ccccc3)CC2)cc1C (centres undefined),"inconclusive [inhibitor, full curve]"
8,O=C(COc1ccccc1Cl)Nc1ccc(S(=O)(=O)Nc2ccccn2)cc1,"inconclusive [inhibitor, full curve, poor fit]"
9,CCOC(=O)C1=C(C)NC(=O)NC1c1ccc(OCC(N)=O)cc1 (centres undefined),"inconclusive [inhibitor, partial curve, poor fit]"
10,CCc1nccn1CCC(=O)N1CCCC(N2CCN(c3ccccc3F)CC2)C1 (centres undefined),"inconclusive [inhibitor, full curve]"
11,CC(C)=C1C2C=CC1C(C(=O)Nc1cc(C)ccc1C)C2C(=O)O (centres undefined),"inconclusive [inhibitor, full curve]"
12,CC(=O)Nc1ccc(S(=O)(=O)Nc2ccc(-n3cnnn3)cc2)cc1,"inconclusive [inhibitor, full curve]"
13,O=C(CSc1ncnc2c1oc1ccccc12)Nc1ccccc1F,"inconclusive [inhibitor, full curve, poor fit]"
14,COC(=O)c1cccc(N2C(=O)C(Cl)=C(N3CCOCC3)C2=O)c1,"inconclusive [inhibitor, full curve, poor fit]"
15,CC(C)N(Cc1ccccc1)C(=O)c1cnc2n(c1=O)CCS2,"inconclusive [inhibitor, full curve]"
16,COc1ccccc1/C=C/C=N/Nc1cccc(C(=O)O)c1,inactive
17,Cc1ccc(Nc2nnc(-c3ccc(C)c(S(=O)(=O)N4CCOCC4)c3)c3ccccc23)cc1,inactive
18,Cc1cc(C)c2c(=O)cc(C(=O)Nc3sc4c(c3C(=O)NCC3CCCO3)CCCC4)oc2c1 (centres undefined),inactive
19,O=C(Nc1cnc2sccn2c1=O)c1ccc(Cl)cc1Cl,inactive
20,Cc1ccc(C)c(S(=O)(=O)N2CCCCC2CCNC(=O)C(=O)NCc2ccccc2)c1 (centres undefined),inactive
21,O=C(CN1CCCC1)Nc1ccc(NC(=O)Nc2ccccc2Cl)cc1,"inconclusive [inhibitor, partial curve]"
22,COc1ccc(NC(=O)CSc2nnc(CNC(=O)c3cccs3)o2)c(OC)c1,"inconclusive [inhibitor, full curve, poor fit]"

row,SMILES,Potency
1,Clc1ccc(/C=N/Nc2nnc(Cl)c3ccccc23)cc1,"inconclusive [inhibitor, partial curve, poor fit]"
2,CC(C)N(CCCNC(=O)Cn1ncc2c([nH]c3ccccc32)c1=O)Cc1ccccc1,inactive
3,COc1ccc(-n2nc(C(=O)NCCCN3CCOCC3)c3ccccc3c2=O)c(OC)c1,"inconclusive [inhibitor, partial curve, poor fit]"
4,CC1CCN(C(=O)c2cc3ccccc3c(=O)o2)CC1,"inconclusive [inhibitor, partial curve]"
5,Clc1ccc(-c2nnc3sc(Cc4cccs4)nn23)cc1,"inconclusive [inhibitor, full curve, poor fit]"
6,CC1(C)Cc2c(c(-c3ccco3)nc3n[nH]c(N)c23)CO1,inactive
7,CCC(Sc1nccn1C)C(=O)Nc1nnc(C)s1 (centres undefined),"inconclusive [inhibitor, full curve]"
8,COc1ccc(C)cc1NC(=O)CC1NCCNC1=O (centres undefined),inactive
9,C=C(C)CNC(=S)Nc1nc2c(cc1C(=O)OCC)CCCC2,"inconclusive [inhibitor, single point]"
10,O=C(CCSCc1ccccc1F)NCc1cccnc1,"inconclusive [inhibitor, partial curve]"
11,Cc1ccc(Cl)cc1NC(=O)Nc1cccc(OCc2cc(=O)n3ccccc3n2)c1,inactive
12,Cc1ccc(C2N(c3ccc(F)cc3)C(=O)C3CCCN32)cc1 (centres undefined),inactive
13,O=C(c1cccnc1)N1CCN(C(=O)c2ccccc2F)CC1,"inconclusive [inhibitor, full curve]"
14,Cc1cc(C)cc(OCC(=O)OCC(=O)NC2CCCCCCC2)c1,"inconclusive [inhibitor, full curve, poor fit]"
15,O=C(CNC(=O)c1ccccc1F)Nc1ccncc1,"inconclusive [inhibitor, full curve]"
16,O=C(CN1C(=O)CCSc2ccccc21)NC1CCCCC1,"inconclusive [inhibitor, partial curve]"
17,CC1(C)CC(=O)C2=C(C1)N(c1ccccc1)C(N)=C(C#N)C2c1ccccc1 (centres undefined),"inconclusive [inhibitor, partial curve, poor fit]"
18,CCn1cc(C(=O)O)c(=O)c2cc(F)c(N3CCN(C(=S)NC(=O)c4ccccc4C)CC3)cc21,inactive
19,COc1ccccc1NC(=O)CN(c1ccccc1)S(=O)(=O)c1ccccc1,"inconclusive [inhibitor, full curve]"
20,O=c1c2ccccc2nc2n1CCN2Cc1ccc(Cl)cc1,inactive
21,CS(=O)(=O)N1CCc2cc(C(=O)N3CCCC3)ccc21,"inconclusive [inhibitor, partial curve]"
22,COC(=O)c1[nH]c2ccc(Cl)cc2c1NC(=O)CN1CCC(C(N)=O)CC1,inactive
